# Laboratory results as given in PubChem BioAssay AID900 (National Center for Advancing Translational Sciences (NCATS), 2007).
# In all, about 75,000 compounds went through this assay and about 20 (0.03%) were called active. The shares of active, inactive and inconclusive entries below differ from those in the screen. Calls come from the whole dose curve; as a rule, active = well fitted inhibition curve with a large enough effect; inconclusive = small, poorly fitted or top-dose-only effect; inactive = flat fitted curve, though single readings scatter. Potencies of inconclusive entries are left out as doubtful fits.
# Molecular target: Caspase-1 (Homo sapiens) (UniProt P29466)
# Experiment: qHTS Assay for Allosteric/Competitive Inhibitors of Caspase-1;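 for activity change, negative = inhibition: plate controls were vehicle for no effect and no substrate for full effect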
# Conditions: Caspase-1 enzyme, Ac-WEHD-AFC fluorogenic rate; activity change, negative = inhibition: at 57.5 µM (top of the series) unless noted
# Potency is the fitted concentration of half-maximal effect; tags give direction and shape of the fitted curve or compound fluorescence and quenching.
Structure (SMILES),"activity change, negative = inhibition",Potency
C=CCn1c(COc2ccc(Cl)cc2)nnc1SCc1ccc(C#N)cc1,inconclusive: -17.9% [inhibitor],
c1ccc2c(N3CCOCC3)nc(-c3ccoc3)nc2c1,inactive: -1.22%,
CCOC(=O)c1sc2nc3c(cc2c1N)COC(C)(C)C3,,"inconclusive [inhibitor, single point]"
C[N+](C)(C)c1nc(N)nc2c1ncn2[C@H]1O[C@@H](CO)[C@@H](O)[C@H]1O,inactive: -3.42% [at 11.5 µM],
O=C1C(Cl)=C(NCCN2CCOCC2)C(=O)c2ncccc21,,active: 6.31 µM
Cc1ccc2[nH]c(=O)c(CN(Cc3ccccc3)Cc3nnnn3C3CCCC3)cc2c1,,"inconclusive [inhibitor, single point]"
Cn1c(C(=O)N2CCc3ccccc32)cc2c(=O)n3ccccc3nc21,,"inconclusive [inhibitor, partial curve]"
CCOC(=O)c1ccc(N2CSC3=C(C#N)C(c4cccs4)CC(=O)N3C2)cc1 (configuration not stated),inactive: -3.22%,
COc1cc(-c2nnc(CSc3nc4ccccc4s3)o2)cc(OC)c1OC,,"inconclusive [inhibitor, single point]"
COCCn1c(=O)c(-c2ccc(F)cc2)nc2cnc(OCc3ccccc3)nc21,,"inconclusive [inhibitor, partial curve]"
Nc1ncnc2c1ncn2[C@H]1O[C@@H](C(=O)O)[C@@H](O)[C@H]1O,inactive: -0.805% [at 11.5 µM],
Cc1ccc2[nH]c(=O)c(C(c3nnnn3CC3CCCO3)N3CCc4ccccc4C3)cc2c1 (configuration not stated),,"inconclusive [inhibitor, single point]"
Cc1ccccc1C(=O)Nc1ccc2c(c1)OCO2,inactive: -4.08%,
O=C1c2ccccc2C(=O)N1CCCc1nc(-c2ccc(Cl)cc2)no1,inactive: 0.544%,
CSC1=C(C#N)C(c2ccc(Cl)cc2)C2=C(CC(C)(C)CC2=O)N1 (configuration not stated),,"inconclusive [inhibitor, partial curve]"
O=C(c1ccco1)N1CCC2(CC1)CCN(C(c1ccccc1)c1ccccc1)CC2,inconclusive: -16.4% [inhibitor],
Cc1nc2ncnn2c(Nc2ccc3c(c2)OCO3)c1Cc1ccccc1,inactive: 0.921%,
CCN1C(=O)c2cccc3c(NC(=O)c4cccc(N5C(=O)CCC5=O)c4)ccc1c23,,"inconclusive [inhibitor, partial curve]"
O=c1c2c3c(sc2nc2n1CCCC2)CCC3,,"inconclusive [inhibitor, partial curve]"
COC(=O)C1(Cc2ccccc2)C=C2C(=C(c3ccccc3)C(=O)C2C)CN1 (configuration not stated),,"inconclusive [inhibitor, partial curve]"
CCCC(=O)NCc1ccc2c(c1)cc(C)n2C,,"inconclusive [inhibitor, partial curve]"
O=C(Nc1ccc(-c2cn3ccsc3n2)cc1)C1CCCC1,inactive: -1.06%,
Clc1ccccc1C(c1ccccc1)(c1ccccc1)n1ccnc1,,inactive
CCOC(=O)C1=C(C)NC(=O)NC1c1ccc(C)o1 (configuration not stated),,"inconclusive [inhibitor, partial curve]"

Structure (SMILES),"activity change, negative = inhibition",Potency
COC(=O)c1c(NC(=O)c2nc3ccccc3s2)sc2c1CCN(C(C)=O)C2,,"inconclusive [inhibitor, partial curve]"
Cc1nc2nc(-c3ccco3)[nH]n2c(=O)c1Cc1ccccc1,,"inconclusive [inhibitor, single point]"
COc1ccccc1N1CCN(CC(=O)Nc2ccc(C)c(F)c2)CC1,inactive: 0.105%,
COc1ccc(-c2nc(-c3ccc(Br)cc3)no2)c(OC)c1,inactive: -1.33%,
Cc1cc(Cl)nc(NC(=O)CSc2ccc(Cl)cc2)n1,,"inconclusive [inhibitor, partial curve]"
Cc1cccc2cc(C(c3nnnn3CC3CCCO3)N3CCc4ccccc4C3)c(=O)[nH]c12 (configuration not stated),,"inconclusive [inhibitor, single point]"
COCCn1c(=O)c(-c2ccc(Cl)cc2)nc2cnc(Oc3ccc(OC)cc3)nc21,,"inconclusive [inhibitor, full curve]"
c1ccc(OCCSc2nnc3sc4ccccc4n23)cc1,inactive: 1.12%,
Cc1nc(N=Nc2ccc(S(=O)(=O)O)cc2S(=O)(=O)O)c(COP(=O)(O)O)c(C=O)c1O,,"inconclusive [inhibitor, partial curve]"
COc1ccc2[nH]cc(CCNc3ncncc3-c3ccc4c(c3)OCO4)c2c1,,"inconclusive [inhibitor, partial curve]"
CCOC(=O)CSc1nc2cc(OCC)ccc2cc1C#N,,"inconclusive [inhibitor, partial curve]"
O=C(c1ccccc1)c1ccccc1C(=O)N1CCCC1,inactive: 1.36%,
Cc1cccn2c(=O)c3cc(C(=O)N(C)C)n(C)c3nc12,,"inconclusive [inhibitor, partial curve]"
CCCCCCCC/C=C\CCCCCCCC(=O)O,inactive: -9.11%,
O=C(/C=C/c1ccccc1)c1ccc(O)cc1O,inconclusive: -38.2% [fluorescent],
CC(C)(C)c1cc(Br)c(O)c(CN(Cc2cc(C(C)(C)C)cc(Br)c2O)C2CCCCC2)c1,inactive: 3.07% [at 11.5 µM],
COc1ccc(C(=O)n2c(-c3ccco3)nc3ccccc32)cc1,inconclusive: -17.8% [inhibitor],
Cc1ccc(NC(=O)CC2Nc3ccccc3NC2=O)cc1Cl (configuration not stated),,"inconclusive [inhibitor, partial curve]"
COc1cccc(Cn2c(=O)c(-c3cn(C)c4ccccc34)nc3cnc(N4CCNCC4)nc32)c1,,"inconclusive [inhibitor, partial curve]"
COc1ccc(NC(=O)c2[nH]c(C)c(C(C)=O)c2C)cc1Cl,inactive: -1.68%,
Cc1ccc(S(=O)(=O)NCCn2c(C)cc3ccccc32)cc1,,"inconclusive [inhibitor, partial curve]"
CCn1c(SCc2ccc(C(=O)OC)o2)nc2sc3c(c2c1=O)CCCC3,inactive: -3.45%,
Oc1ccc(O)c2c(O)cccc12,,"inconclusive [inhibitor, partial curve]"
